Test results published in patent publication US20260217837A1, “FGFR3 BINDING MOLECULES AND METHODS OF USE THEREOF” (Regeneron Pharmaceuticals, Inc., priority 2023, published 2026).

Key:
[1] = test system: MAPK phosphorylation in BaF3 cells expressing WT hFGFR3b; assay: Western blot, FGF1/heparin induced MAPK phosphorylation in BaF3 WT hFGFR3b cells; type: cell-based; conditions: 100 nM antibody overnight, 100 nM FGF1 and 10 ug/ml heparin 15 min
Method: To evaluate receptor phosphorylation and downstream signaling, cells were serum starved overnight in the presence or absence of indicated antibodies followed by ligand (100 ng/ml human FGF1 and 10 μg/ml heparin) stimulation for 15 min at 37° C. Equal amounts of cell lysates were analyzed by SDS-PAGE. Blots were incubated with pMAPK, MAPK or actin antibodies followed by incubation with HRP secondary antibody. For FGFR3 phosphorylation, equal amounts of cell lysates were incubated with pY100 Sepharose beads overnight and non-specific binding was removed by washes with lysis buffer. Immunoprecipitated proteins were analyzed by reducing or non-reducing SDS-PAGE and blotted with FGFR3 antibody.

[2] = test system: BaF3 cells expressing the double mutant FGFR3 S249C+V557M; assay: BaF3 cell viability, FGFR3 S249C+V557M; type: cell-based; conditions: 72 hours, FGF1/heparin
Description: (§1) cDNA expressing FGFR3 mutants (S249C, S248C, Y375C, V555M, V555L, S249C+V555M, or S249C+V555L) were synthesized and cloned into pLVX Lenti-viral vector (Thermo Fisher). Viral particles were generated by lipofectamine transfection of LentiX 293T cells using Lenti-X packaging single shots following manufacturer's protocol (Clontech/Takara) and concentrated using Lenti-X concentrator and titer determined using Lenti-X p24 rapid titer kit (Clontech/Takara). BaF3 cells were transduced with virus at ~0.3 MOI.
(§2) For cell proliferation assays, engineered BaF3/hFGFR3 cells grown in complete medium were washed and plated in IL-3-free culture media±5 μg/ml heparin and 1 nM human FGF1. Cells were plated out at 1×10^5 cells/well into 96-well plates, followed by the addition of 1:3 serially diluted antibodies as indicated in figures. After addition of antibodies, cells were incubated at 37° C. for 72 h followed by the addition of CellTiter-Glo™ (Promega) reagent. The luminescent signal was detected by Envision plate reader (PerkinElmer). Data was analyzed using Prism software (GraphPad). […]

FGFR3 = assay: Ligand blocking activity of parental anti-FGFR3 antibodies (Table 1); type: binding; conditions: parental anti-FGFR3 antibody
[3] = test system: BaF3 cells expressing the double mutant FGFR3 S249C+V557L; assay: BaF3 cell viability, FGFR3 S249C+V557L; type: cell-based; conditions: 72 hours, FGF1/heparin
Description: as §1, §2

[4] = test system: LU-0813 tumors (patient-derived lung squamous cell carcinoma, FGFR3 S249C); assay: In vivo tumor growth inhibition, LU-0813 PDX model; parameters: species or system mice; conditions: mAb063 10 mg/kg, BiP063N2 13.3 mg/kg twice per week; compared with erdafitinib 25 mg/kg daily oral
Method: Next, the ability of BiP063N2 to inhibit the growth of a patient-derived lung squamous cell carcinoma model LU-0813 was assessed.

[5] = test system: RT4 cells (FGFR3-TACC3 fusion); assay: RT4 spheroid cell proliferation assay (CellTiter-Glo 3D); type: cell-based, human
Method: (§3) Two human bladder cancer cell lines, UMUC14 (Sigma-Aldrich) and RT4 (ATCC), which express an S249C mutation of FGFR3 or express TACC3-FGFR3 fusion mutation, respectively, were maintained in culture according to the suppliers' recommendations. 7500 UMUC14 or 5000 RT4 bladder cancer cells were seeded in U-bottom low attachment 96-well spheroid plate (Corning) in culture medium (MEM medium with 10% FBS, 1% non-essential amino acids, Pen/Strep). Cells were cultured for 24-48 hours at 37° C. 5% CO2 to allow tumor spheroid formation. Tumor spheroids were treated with antibodies at concentrations ranging from 100 nM to 15.2 pM with 1:3 serial dilution as indicated in the figures. Cells were cultured for 5-6 days, and then subjected to CellTiter-Glo 3D viability assays (Promega) following the manufacturer's protocol. Luminescence signal was read on PE Envision plate reader. Cell proliferation was expressed as percentages of untreated controls. Data were analyzed using GraphPad Prism software using three parameter nonlinear curve fit.

human FGFR3b (hFGFR3b) = assay: Biacore binding to human FGFR3b; conditions: 25 C
Method: Affinity and mechanism of action of binding of anti-FGFR3 antibodies to FGFR3 isoforms were determined by Biacore analysis. In brief, in-house generated monoclonal anti-human Fc antibody was immobilized on the surface of a CM-5 sensor chip. Different concentrations of FGFR3 antibodies were injected at 50 μL/min for 4 min and the assay was performed at 25° C. The mAb binding response was monitored and, for low affinity receptors, steady-state binding equilibrium was calculated. Kinetic association (ka) and dissociation (kd) rate constants were determined by processing and fitting the data to a 1:1 binding model using Scrubber 2.0 curve fitting software. Binding dissociation equilibrium constants (KD) and dissociative half-lives (t1/2) were calculated from the kinetic rate constants using the formula: KD (M)=kd/ka; and t1/2 (min)=(ln2/(60*kd). Some KD values were derived using the steady state equilibrium dissociation constant; When no KD values could be derived, it was marked as NB (no binding observed) or IC (inconclusive affinity determination due to low specific RU signal).

[6] = test system: UMUC14 tumors (FGFR3 S249C); assay: In vivo tumor growth inhibition, UMUC14 xenograft; parameters: species or system SCID mice
Description: Tumor cells (5×10^6 UMUC14 or RT112 in 50% Matrigel) were implanted subcutaneously (s.c.) into the right flank of 6 to 8-week-old female SCID mice (Jackson Laboratory). Once tumors were established (~200 mm^3 in volume), mice were randomized into treatment groups (n=10 mice per group) and injected intraperitoneally (i.p.) twice per week with anti-FGFR3 antibodies or isotype control at indicated doses. Tumor volume was expressed in mm^3 using the formula: V=0.5×a×b^2 where a and b were the long and short diameters of the tumor, respectively. Tumor sizes were monitored twice weekly. All procedures were conducted according to the guidelines of the Regeneron Institutional Animal Care and Use Committee. All data were analyzed using GraphPad Prism and tumor sizes were graphed as mean±SEM.

[7] = test system: UMUC14 cells (FGFR3 S249C); assay: UMUC14 spheroid cell proliferation assay (CellTiter-Glo 3D); type: cell-based, human
Method: as §3

B1: mAb063: parental anti-FGFR3 antibody of BiP063N2, inhibitory; anchor mAb (antibody)
heavy: QVQLQESGPGLVKPSETLSLTCTVSGDSINSYFWSWIRQLPGKELEWIGHIYSSGSTRYNPSLQSRVTISIDTSKNQFSLKLSSVTAADTAVYYCARGASAVDYWGQGTLVTVSSASTKGPSVFPLAPCSRSTSESTAALGCLVKDYFPEPVTVSWNSGALTSGVHTFPAVLQSSGLYSLSSVVTVPSSSLGTKTYTCNVDHKPSNTKVDKRV[human IgG4 Fc with S228P (EU numbers) cut from this listing]
light: EIVLTQSPGTLSLSPGERATLSCRTSQSISSGYLAWYQQKPGQAPRLLIYGASRRATGIPDRFSGSGSGTDFTLTISRLEPEDFVVYYCQQYGSSPYTFGQGTKLEIKRTVAAPSVFIFPPSDEQLKSGTASVVCLLNNFYPREAKVQWKVDNALQSGNSQESVTEQDSKDSTYSLSSTLTLSKADYEKHKVYACEVTHQGLSSPVTKSFNRGEC
Q: How did the “pMAPK after FGF1/heparin stimulation, WT hFGFR3b” value [1] turn out when B1 was run?
A: no increases in pMAPK

Q: And the “growth of BaF3 cells expressing FGFR3 S249C+V557M” value [2]?
A: robustly inhibited the growth

Q: And the “Ligand Blocking Activity (second figure of the cell, percent)” value (FGFR3)?
A: 95%

Q: And the “growth of BaF3 cells expressing FGFR3 S249C+V557L” value [3]?
A: robustly inhibited the growth

Q: What about the LU-0813 tumor growth [4] of the same molecule?
A: strongly inhibited tumor growth

Q: What about the “antiproliferative activity in RT4 spheroid proliferation assay” value ([5]; FGFR3-TACC3 fusion, 5 to 6 days) of the same molecule?
A: modest inhibitory activity

Q: And the “impact of IgG subclass on activity on RT4 cell proliferation” value ([5]; IgG backbones compared)?
A: modest effect on IC50

Q: What about the “binding to human FGFR3b” value (human FGFR3b (hFGFR3b)) of the same molecule?
A: shown to bind

Q: What about the “UMUC14 tumor growth after discontinuation of dosing” value ([6]; BiP063N2 6.65 mg/kg or mAb063 5 mg/kg, dosing discontinued day 32, monitored until day 46) of the same molecule?
A: sustained tumor growth suppression

Q: What about the UMUC14 tumor growth ([6]; mAb063 10 and 3 mg/kg, BiP063N2 13.3 and 4 mg/kg (same molar), i.p. twice per week) of the same molecule?
A: tumor regression

Q: What about the “antiproliferative activity in UMUC14 spheroid proliferation assay” value ([7]; FGFR3 S249C, 5 to 6 days) of the same molecule?
A: potent inhibitory activity

Q: And the “activity on UMUC14 cell proliferation, IgG1 backbone” value ([7]; IgG1 backbone)?
A: complete loss of activity

Q: What about the “activity on UMUC14 cell proliferation, IgG4s backbone” value ([7]; IgG4s backbone) of the same molecule?
A: partial
